Drawing on paper PMC12820563, this text covers binding signal (RPM ratio (pull-down/input)) for 31 sequences.

The list shows a part of the results. The list includes weakly bound sequences.

The assay has as its target T1, MBP-FoxP3dN (UniProt Q99JB6).
T1 sequence: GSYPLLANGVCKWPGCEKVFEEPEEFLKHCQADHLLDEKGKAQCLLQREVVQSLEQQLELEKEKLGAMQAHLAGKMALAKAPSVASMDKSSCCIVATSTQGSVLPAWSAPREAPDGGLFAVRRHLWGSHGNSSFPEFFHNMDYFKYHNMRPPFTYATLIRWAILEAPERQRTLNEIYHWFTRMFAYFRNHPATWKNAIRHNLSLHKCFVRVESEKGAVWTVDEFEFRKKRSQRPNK
Put plainly: PD-seq (MBP pull-down with sequencing). As to conditions: 20 mM Tris-HCl pH 7.5, 100 mM NaCl, 1.5 mM MgCl2, 0.4 uM protein, 0.1 uM dsDNA library, 30 min, room temperature, amylose pull-down; high values mean tight binding; double strand, one strand shown.
In the case of “GATGATTGTTCTCCCAGCTGATGAATTCAGCATCTCGAGTAAACAAATTTTCCTAATCTTTCTGTTCAAGCGCCATCTAC”, the binding signal (RPM ratio (pull-down/input)) stood at 6.49.
“GATGATTGTTCTCCCAGCTGATGAATTCTATCCGTCGAGTAAACAAATTTTCCTAATCTTTCTGTTCAAGCGCCATCTAC”: the binding signal (RPM ratio (pull-down/input)) was determined as 0.321.
As for “GATGATTGTTCTCCCAGCTGATGAATTATCCGTCTCGAGTAAACAAATTTTCCTAATCTTTCTGTTCAAGCGCCATCTAC”, the figure is 0.269.
In the case of “GATGATTGTTCTCCCAGCTGATGAATTCATTTATTCGAGTAAACAAATTTTCCTAATCTTTCTGTTCAAGCGCCATCTAC”, the binding signal (RPM ratio (pull-down/input)) came out at 2.26.
For the sequence “GATGATTGTTCTCCCAGCTGATGAATTTGCGGTGTCGAGTAAACAAATTTTCCTAATCTTTCTGTTCAAGCGCCATCTAC”, the binding signal (RPM ratio (pull-down/input)) turned out to be 2.57.
As for “GATGATTGTTCTCCCAGCTGATGAATTGACCAAGTCGAGTAAACAAATTTTCCTAATCTTTCTGTTCAAGCGCCATCTAC”, the figure is 0.19; as for “GATGATTGTTCTCCCAGCTGATGAATTGCTAGCCTCGAGTAAACAAATTTTCCTAATCTTTCTGTTCAAGCGCCATCTAC”, 0.782; as for “GATGATTGTTCTCCCAGCTGATGAATTCCTCAGTTCGAGTAAACAAATTTTCCTAATCTTTCTGTTCAAGCGCCATCTAC”, 0.231.
With “GATGATTGTTCTCCCAGCTGATGAATTACGCTTATCGAGTAAACAAATTTTCCTAATCTTTCTGTTCAAGCGCCATCTAC”, the binding signal (RPM ratio (pull-down/input)) came out at 1.57.
The result for “GATGATTGTTCTCCCAGCTGATGAATTCCATTGGTCGAGTAAACAAATTTTCCTAATCTTTCTGTTCAAGCGCCATCTAC” reads 0.66; that for “GATGATTGTTCTCCCAGCTGATGAATTAATACAGTCGAGTAAACAAATTTTCCTAATCTTTCTGTTCAAGCGCCATCTAC”, 0.513.
For the sequence “GATGATTGTTCTCCCAGCTGATGAATTTACAGATTCGAGTAAACAAATTTTCCTAATCTTTCTGTTCAAGCGCCATCTAC”, the binding signal (RPM ratio (pull-down/input)) was found to be 0.415.
Regarding “GATGATTGTTCTCCCAGCTGATGAATTAGCTGATTCGAGTAAACAAATTTTCCTAATCTTTCTGTTCAAGCGCCATCTAC”, the binding signal (RPM ratio (pull-down/input)) worked out at 1.17.
Turning to “GATGATTGTTCTCCCAGCTGATGAATTGTAGGGCTCGAGTAAACAAATTTTCCTAATCTTTCTGTTCAAGCGCCATCTAC”, the binding signal (RPM ratio (pull-down/input)) turned out to be 0.494.
As for “GATGATTGTTCTCCCAGCTGATGAATTGACCGTATCGAGTAAACAAATTTTCCTAATCTTTCTGTTCAAGCGCCATCTAC”, the binding signal (RPM ratio (pull-down/input)) was found to be 0.445.
“GATGATTGTTCTCCCAGCTGATGAATTCGGATCGTCGAGTAAACAAATTTTCCTAATCTTTCTGTTCAAGCGCCATCTAC”: the binding signal (RPM ratio (pull-down/input)) worked out at 0.329.
With “GATGATTGTTCTCCCAGCTGATGAATTGGCTGAATCGAGTAAACAAATTTTCCTAATCTTTCTGTTCAAGCGCCATCTAC”, the binding signal (RPM ratio (pull-down/input)) turned out to be 0.239.
As for “GATGATTGTTCTCCCAGCTGATGAATTACCCCCCTCGAGTAAACAAATTTTCCTAATCTTTCTGTTCAAGCGCCATCTAC”, the figure is 0.297.
For “GATGATTGTTCTCCCAGCTGATGAATTCACGTTATCGAGTAAACAAATTTTCCTAATCTTTCTGTTCAAGCGCCATCTAC”, the binding signal (RPM ratio (pull-down/input)) is 0.742.
The result for “GATGATTGTTCTCCCAGCTGATGAATTTAAATCCTCGAGTAAACAAATTTTCCTAATCTTTCTGTTCAAGCGCCATCTAC” reads 0.377.
“GATGATTGTTCTCCCAGCTGATGAATTAGTTAGATCGAGTAAACAAATTTTCCTAATCTTTCTGTTCAAGCGCCATCTAC”: the binding signal (RPM ratio (pull-down/input)) came to 0.461.
As for “GATGATTGTTCTCCCAGCTGATGAATTTGTGAGATCGAGTAAACAAATTTTCCTAATCTTTCTGTTCAAGCGCCATCTAC”, the figure is 0.579; as for “GATGATTGTTCTCCCAGCTGATGAATTAAACAGGTCGAGTAAACAAATTTTCCTAATCTTTCTGTTCAAGCGCCATCTAC”, 0.425; as for “GATGATTGTTCTCCCAGCTGATGAATTAGTTTGCTCGAGTAAACAAATTTTCCTAATCTTTCTGTTCAAGCGCCATCTAC”, 5.59.
As for “GATGATTGTTCTCCCAGCTGATGAATTGGTTCTGTCGAGTAAACAAATTTTCCTAATCTTTCTGTTCAAGCGCCATCTAC”, the figure is 0.3; as for “GATGATTGTTCTCCCAGCTGATGAATTGTTCCAGTCGAGTAAACAAATTTTCCTAATCTTTCTGTTCAAGCGCCATCTAC”, 0.319; as for “GATGATTGTTCTCCCAGCTGATGAATTAACTATTTCGAGTAAACAAATTTTCCTAATCTTTCTGTTCAAGCGCCATCTAC”, 0.405.
Turning to “GATGATTGTTCTCCCAGCTGATGAATTCAGCCTCTCGAGTAAACAAATTTTCCTAATCTTTCTGTTCAAGCGCCATCTAC”, the binding signal (RPM ratio (pull-down/input)) worked out at 5.28.
Regarding “GATGATTGTTCTCCCAGCTGATGAATTGGGAATATCGAGTAAACAAATTTTCCTAATCTTTCTGTTCAAGCGCCATCTAC”, the binding signal (RPM ratio (pull-down/input)) was determined as 0.512.
For the sequence “GATGATTGTTCTCCCAGCTGATGAATTGCTAATGTCGAGTAAACAAATTTTCCTAATCTTTCTGTTCAAGCGCCATCTAC”, the binding signal (RPM ratio (pull-down/input)) came out at 0.726.
As for “GATGATTGTTCTCCCAGCTGATGAATTAGCTAAATCGAGTAAACAAATTTTCCTAATCTTTCTGTTCAAGCGCCATCTAC”, the figure is 0.225.
